Data as given in the supplement of paper PMC8728848.
Some of the results follow.

Experiments:
Test in all cases: glycan array binding signal (z-score within array); higher = stronger binding
Conditions in all cases: glycan notation: IUPAC condensed, linker removed
[1] = biological target: GlcNAc(b1-4)GlcNAc(b1-4)GlcNAc(b1-4)GlcNAc(b1-4)GlcNAc
Summary of the method: (§1)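 Glycan array data came from 3228 arrays in the Consortium for Functional Glycomics database, and only arrays with an available protein sequence were kept. Glycan names were put into IUPAC-condensed notation, and columns mapping to the same glycan were averaged. The binding signal is a within-array Z-score, averaged across arrays of one protein sequence run at different concentrations or buffers and across linkers. A negative Z-score can be read as non-binding.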

[2] = biological target: GlcNAc(b1-4)GlcNAc(b1-4)GlcNAc(b1-4)GlcNAc(b1-4)GlcNAc(b1-4)GlcNAc
Summary of the method: as §1

[3] = biological target: GlcNAc(b1-4)[GlcNAc(b1-6)]GalNAc
Summary of the method: as §1

[4] = biological target: GlcNAc(b1-6)Gal(b1-4)GlcNAc
Summary of the method: as §1

GlcNAc(b1-6)GalNAc = biological target: GlcNAc(b1-6)GalNAc
Summary of the method: as §1

[5] = biological target: GlcNAc6S(b1-3)Gal(b1-4)GlcNAc
Summary of the method: as §1

Kdn(a2-3)Gal(b1-3)GalNAc = biological target: Kdn(a2-3)Gal(b1-3)GalNAc
Summary of the method: as §1

Kdn(a2-3)Gal(b1-3)GlcNAc = biological target: Kdn(a2-3)Gal(b1-3)GlcNAc
Summary of the method: as §1

Kdn(a2-3)Gal(b1-4)Glc = biological target: Kdn(a2-3)Gal(b1-4)Glc
Summary of the method: as §1

Kdn(a2-3)Gal(b1-4)GlcNAc = biological target: Kdn(a2-3)Gal(b1-4)GlcNAc
Summary of the method: as §1

[6] = biological target: Kdn(a2-3)Gal(b1-4)[Fuc(a1-3)]GlcNAc
Summary of the method: as §1

Kdn(a2-6)Gal(b1-4)GlcNAc = biological target: Kdn(a2-6)Gal(b1-4)GlcNAc
Summary of the method: as §1

[7] = biological target: Man(a1-2)Man(a1-2)Man(a1-3)Man
Summary of the method: as §1

[8] = biological target: Man(a1-2)Man(a1-2)Man(a1-6)[Man(a1-3)]Man
Summary of the method: as §1

Man(a1-2)Man(a1-3)Man = biological target: Man(a1-2)Man(a1-3)Man
Summary of the method: as §1

[9] = biological target: Man(a1-2)Man(a1-3)[Man(a1-2)Man(a1-6)]Man
Summary of the method: as §1

[10] = biological target: Man(a1-2)Man(a1-3)[Man(a1-2)Man(a1-6)]Man(a1-6)[Man(a1-2)Man(a1-2)Man(a1-3)]Man
Summary of the method: as §1

[11] = biological target: Man(a1-2)Man(a1-3)[Man(a1-2)Man(a1-6)]Man(a1-6)[Man(a1-2)Man(a1-2)Man(a1-3)]Man(b1-4)GlcNAc(b1-4)GlcNAc
Summary of the method: as §1

[12] = biological target: Man(a1-2)Man(a1-3)[Man(a1-6)]Man(a1-6)[Man(a1-2)Man(a1-3)]Man(b1-4)GlcNAc(b1-4)GlcNAc
Summary of the method: as §1

[13] = biological target: Man(a1-2)Man(a1-6)[Man(a1-3)]Man(a1-6)[Man(a1-2)Man(a1-2)Man(a1-3)]Man
Summary of the method: as §1

[14] = biological target: Man(a1-2)Man(a1-6)[Man(a1-3)]Man(a1-6)[Man(a1-2)Man(a1-2)Man(a1-3)]Man(b1-4)GlcNAc(b1-4)GlcNAc
Summary of the method: as §1

Man(a1-3)[Man(a1-6)]Man = biological target: Man(a1-3)[Man(a1-6)]Man
Summary of the method: as §1

[15] = biological target: Man(a1-3)[Man(a1-6)]Man(a1-6)[Man(a1-2)Man(a1-3)]Man(b1-4)GlcNAc(b1-4)GlcNAc
Summary of the method: as §1

[16] = biological target: Man(a1-3)[Man(a1-6)]Man(a1-6)[Man(a1-3)]Man
Summary of the method: as §1

[17] = biological target: Man(a1-3)[Man(a1-6)]Man(a1-6)[Man(a1-3)]Man(b1-4)GlcNAc(b1-4)GlcNAc
Summary of the method: as §1

[18] = biological target: Man(a1-3)[Man(a1-6)]Man(b1-4)GlcNAc(b1-4)GlcNAc
Summary of the method: as §1

[19] = biological target: Man(a1-3)[Man(a1-6)]Man(b1-4)GlcNAc(b1-4)[Fuc(a1-6)]GlcNAc
Summary of the method: as §1

Man(a1-6)Man = biological target: Man(a1-6)Man
Summary of the method: as §1

Man(b1-4)GlcNAc = biological target: Man(b1-4)GlcNAc
Summary of the method: as §1

MurNAc(b1-4)GlcNAc = biological target: MurNAc(b1-4)GlcNAc
Summary of the method: as §1

Neu5Ac(a2-3)Gal = biological target: Neu5Ac(a2-3)Gal
Summary of the method: as §1

[20] = biological target: Neu5Ac(a2-3)Gal(b1-3)GalNAc
Summary of the method: as §1

[21] = biological target: Neu5Ac(a2-3)Gal(b1-3)GalNAc(b1-3)Gal(a1-4)Gal(b1-4)Glc
Summary of the method: as §1

[22] = biological target: Neu5Ac(a2-3)Gal(b1-3)GalNAc(b1-4)[Neu5Ac(a2-3)]Gal(b1-4)Glc
Summary of the method: as §1

[23] = biological target: Neu5Ac(a2-3)Gal(b1-3)GalNAc(b1-4)[Neu5Ac(a2-8)Neu5Ac(a2-3)]Gal(b1-4)Glc
Summary of the method: as §1

[24] = biological target: Neu5Ac(a2-3)Gal(b1-3)GalNAc6S
Summary of the method: as §1

[25] = biological target: Neu5Ac(a2-3)Gal(b1-3)GlcNAc
Summary of the method: as §1

[26] = biological target: Neu5Ac(a2-3)Gal(b1-3)GlcNAc(b1-2)Man
Summary of the method: as §1

[27] = biological target: Neu5Ac(a2-3)Gal(b1-3)GlcNAc(b1-2)Man(a1-3)[GlcNAc(b1-4)][Neu5Ac(a2-3)Gal(b1-3)GlcNAc(b1-2)Man(a1-6)]Man(b1-4)GlcNAc(b1-4)GlcNAc
Summary of the method: as §1

[28] = biological target: Neu5Ac(a2-3)Gal(b1-3)GlcNAc(b1-2)Man(a1-3)[Neu5Ac(a2-3)Gal(b1-3)GlcNAc(b1-2)Man(a1-6)]Man(b1-4)GlcNAc(b1-4)GlcNAc
Summary of the method: as §1

[29] = biological target: Neu5Ac(a2-3)Gal(b1-3)GlcNAc(b1-3)Gal(b1-3)GlcNAc
Summary of the method: as §1

[30] = biological target: Neu5Ac(a2-3)Gal(b1-3)GlcNAc(b1-3)Gal(b1-4)GlcNAc
Summary of the method: as §1

[31] = biological target: Neu5Ac(a2-3)Gal(b1-3)GlcNAc(b1-3)GalNAc
Summary of the method: as §1

[32] = biological target: Neu5Ac(a2-3)Gal(b1-3)GlcNAc(b1-4)Gal(b1-4)Glc
Summary of the method: as §1

[33] = biological target: Neu5Ac(a2-3)Gal(b1-3)GlcNAc(b1-6)GalNAc
Summary of the method: as §1

B1: Gal 3C (Homo sapiens), P17931 (protein)
chain: YGAPAGPLIVPYNLPLPGGVVPRMLITILGTVKPNANRIALDFQRGNDVAFHFNPRFNENNRRVIVCNTKLDNNWGREERQSVFPFESGKPFKIQVLVEPDHFKVAVNDAHLLQYNHRVKKLNEISKLGISGDIDLTSASYTMI
glycan array binding signal (z-score) [1]: -0.351
glycan array binding signal (z-score) [2]: -0.231
glycan array binding signal (z-score) [3]: -0.294
glycan array binding signal (z-score) [4]: -0.297
glycan array binding signal (z-score) (GlcNAc(b1-6)GalNAc): -0.322
glycan array binding signal (z-score) [5]: -0.289
glycan array binding signal (z-score) (Kdn(a2-3)Gal(b1-3)GalNAc): -0.132
glycan array binding signal (z-score) (Kdn(a2-3)Gal(b1-3)GlcNAc): -0.291
glycan array binding signal (z-score) (Kdn(a2-3)Gal(b1-4)Glc): -0.237
glycan array binding signal (z-score) (Kdn(a2-3)Gal(b1-4)GlcNAc): -0.297
glycan array binding signal (z-score) [6]: -0.278
glycan array binding signal (z-score) (Kdn(a2-6)Gal(b1-4)GlcNAc): -0.295
glycan array binding signal (z-score) [7]: -0.309
glycan array binding signal (z-score) [8]: -0.285
glycan array binding signal (z-score) (Man(a1-2)Man(a1-3)Man): -0.271
glycan array binding signal (z-score) [9]: -0.31
glycan array binding signal (z-score) [10]: -0.342
glycan array binding signal (z-score) [11]: 0.202
glycan array binding signal (z-score) [12]: -0.298
glycan array binding signal (z-score) [13]: -0.235
glycan array binding signal (z-score) [14]: -0.266
glycan array binding signal (z-score) (Man(a1-3)[Man(a1-6)]Man): -0.256
glycan array binding signal (z-score) [15]: 0.776
glycan array binding signal (z-score) [16]: -0.328
glycan array binding signal (z-score) [17]: -0.293
glycan array binding signal (z-score) [18]: -0.065
glycan array binding signal (z-score) [19]: -0.287
glycan array binding signal (z-score) (Man(a1-6)Man): -0.243
glycan array binding signal (z-score) (Man(b1-4)GlcNAc): -0.133
glycan array binding signal (z-score) (MurNAc(b1-4)GlcNAc): -0.322
glycan array binding signal (z-score) (Neu5Ac(a2-3)Gal): -0.314
glycan array binding signal (z-score) [20]: -0.318
glycan array binding signal (z-score) [21]: -0.19
glycan array binding signal (z-score) [22]: -0.209
glycan array binding signal (z-score) [23]: -0.246
glycan array binding signal (z-score) [24]: -0.328
glycan array binding signal (z-score) [25]: -0.262
glycan array binding signal (z-score) [26]: -0.298
glycan array binding signal (z-score) [27]: -0.256
glycan array binding signal (z-score) [28]: -0.266
glycan array binding signal (z-score) [29]: -0.032
glycan array binding signal (z-score) [30]: -0.147
glycan array binding signal (z-score) [31]: -0.212
glycan array binding signal (z-score) [32]: -0.349
glycan array binding signal (z-score) [33]: -0.299
